In the test the test system is NCI-H322M lung. The test is described as follows: growth of human tumour cells (NCI), 48 h.

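Following 48 hours of exposure in 96-well plates, responses at five concentrations were used to interpolate endpoints linearly. Abbreviation: GI50, concentration required for 50% inhibition of growth. TGI: concentration producing complete growth inhibition.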

For the compound `O=C(N/N=C/c1ccc(B(O)O)o1)c1[nH]c2ccc(Br)cc2c1-c1ccccc1`, the GI50 is 41.4 µM and the TGI was above 100 µM.

`CN1CCN(c2ccc(C(=O)/C=C/c3ccc(OC(F)F)cc3)cc2)CC1`: the GI50 is 14.4 µM and the TGI turned out to be 27.4 µM.

These data come from PubChem BioAssay (NCI).
